Binding data for four molecules are collected here from PMC9260856.

Protein sequences, listed by entry. Tags and fused reporters are not part of them. Lines headed by an entry give the natural chain unless they say otherwise; changes in a name come on top.
UniProt P68400: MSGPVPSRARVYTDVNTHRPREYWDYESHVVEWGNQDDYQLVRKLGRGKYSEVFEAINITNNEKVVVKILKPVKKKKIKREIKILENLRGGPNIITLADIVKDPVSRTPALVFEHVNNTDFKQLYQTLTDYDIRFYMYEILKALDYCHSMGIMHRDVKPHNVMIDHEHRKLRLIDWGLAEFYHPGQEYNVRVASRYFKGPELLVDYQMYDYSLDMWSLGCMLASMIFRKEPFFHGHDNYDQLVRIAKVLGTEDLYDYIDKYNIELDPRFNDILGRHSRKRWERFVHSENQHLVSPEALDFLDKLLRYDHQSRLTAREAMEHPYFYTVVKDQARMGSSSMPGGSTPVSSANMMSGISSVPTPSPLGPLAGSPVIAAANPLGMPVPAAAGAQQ
UniProt P63208: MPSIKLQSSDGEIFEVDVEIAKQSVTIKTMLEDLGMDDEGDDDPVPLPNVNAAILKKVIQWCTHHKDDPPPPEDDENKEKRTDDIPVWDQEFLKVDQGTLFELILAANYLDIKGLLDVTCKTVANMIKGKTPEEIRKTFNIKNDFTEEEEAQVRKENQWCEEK

These are yes or no findings as the source states them, for the method shown. In cells and extracts the contact can be indirect. Some binding calls cover weakened binding; strength is not graded here. For part of these data: Tags and fused reporters may be left off the sequences shown.

The target in assay [1] is T1, StrepII-FLAG-tagged ZXDA (SF-ZXDA), transfected in HEK293T cells (human) (UniProt P98168).
T1 sequence: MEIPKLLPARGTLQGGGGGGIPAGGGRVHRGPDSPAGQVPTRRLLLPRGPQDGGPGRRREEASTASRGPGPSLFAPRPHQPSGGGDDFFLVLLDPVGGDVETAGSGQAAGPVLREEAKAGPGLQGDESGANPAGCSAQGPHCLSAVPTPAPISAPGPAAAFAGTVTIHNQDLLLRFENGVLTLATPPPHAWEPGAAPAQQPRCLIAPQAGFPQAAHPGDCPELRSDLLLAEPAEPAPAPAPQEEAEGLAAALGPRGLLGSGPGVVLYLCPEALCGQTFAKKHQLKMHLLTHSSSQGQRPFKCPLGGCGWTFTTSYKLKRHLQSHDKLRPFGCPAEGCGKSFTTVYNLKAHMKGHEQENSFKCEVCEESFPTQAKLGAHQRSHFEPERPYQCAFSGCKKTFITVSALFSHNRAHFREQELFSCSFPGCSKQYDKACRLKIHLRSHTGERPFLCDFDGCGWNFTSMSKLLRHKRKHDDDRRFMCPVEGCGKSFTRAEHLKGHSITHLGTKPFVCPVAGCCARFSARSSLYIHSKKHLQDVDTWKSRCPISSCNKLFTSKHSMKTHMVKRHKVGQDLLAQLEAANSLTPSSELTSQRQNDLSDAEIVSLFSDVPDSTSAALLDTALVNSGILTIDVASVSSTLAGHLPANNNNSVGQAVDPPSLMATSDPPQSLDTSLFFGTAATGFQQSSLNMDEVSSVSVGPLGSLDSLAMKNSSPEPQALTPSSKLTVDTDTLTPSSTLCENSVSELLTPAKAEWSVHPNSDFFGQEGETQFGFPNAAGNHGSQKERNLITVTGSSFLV
The assay is described as follows: co-IP; SF-tagged bait affinity-purified on Strep-Tactin Sepharose from whole-cell lysates of transfected HEK293T cells (150 mM NaCl, 50 mM Tris pH 7.5, 0.4% Triton X-100, Benzonase), desthiobiotin elution, immunoblot; MLN4924 before collecting where indicated. (In general: A western blot detects proteins with antibodies after separation by electrophoresis.)

Assay [2] has as its target T2, SF-tagged DEDD2, transfected in HEK293T cells (UniProt Q8WXF8).
T2 sequence: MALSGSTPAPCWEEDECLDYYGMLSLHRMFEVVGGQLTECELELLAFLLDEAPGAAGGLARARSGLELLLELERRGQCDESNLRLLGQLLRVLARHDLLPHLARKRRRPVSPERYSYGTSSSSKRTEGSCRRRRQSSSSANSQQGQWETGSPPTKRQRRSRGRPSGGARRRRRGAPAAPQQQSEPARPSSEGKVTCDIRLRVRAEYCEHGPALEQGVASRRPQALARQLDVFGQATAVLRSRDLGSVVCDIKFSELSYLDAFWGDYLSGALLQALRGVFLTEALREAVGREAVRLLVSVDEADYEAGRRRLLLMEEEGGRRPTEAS
The description is as above.

The target in assay [3] is T3, SF-Cyclin F, transfected in HEK293T cells (UniProt P41002).
T3 sequence: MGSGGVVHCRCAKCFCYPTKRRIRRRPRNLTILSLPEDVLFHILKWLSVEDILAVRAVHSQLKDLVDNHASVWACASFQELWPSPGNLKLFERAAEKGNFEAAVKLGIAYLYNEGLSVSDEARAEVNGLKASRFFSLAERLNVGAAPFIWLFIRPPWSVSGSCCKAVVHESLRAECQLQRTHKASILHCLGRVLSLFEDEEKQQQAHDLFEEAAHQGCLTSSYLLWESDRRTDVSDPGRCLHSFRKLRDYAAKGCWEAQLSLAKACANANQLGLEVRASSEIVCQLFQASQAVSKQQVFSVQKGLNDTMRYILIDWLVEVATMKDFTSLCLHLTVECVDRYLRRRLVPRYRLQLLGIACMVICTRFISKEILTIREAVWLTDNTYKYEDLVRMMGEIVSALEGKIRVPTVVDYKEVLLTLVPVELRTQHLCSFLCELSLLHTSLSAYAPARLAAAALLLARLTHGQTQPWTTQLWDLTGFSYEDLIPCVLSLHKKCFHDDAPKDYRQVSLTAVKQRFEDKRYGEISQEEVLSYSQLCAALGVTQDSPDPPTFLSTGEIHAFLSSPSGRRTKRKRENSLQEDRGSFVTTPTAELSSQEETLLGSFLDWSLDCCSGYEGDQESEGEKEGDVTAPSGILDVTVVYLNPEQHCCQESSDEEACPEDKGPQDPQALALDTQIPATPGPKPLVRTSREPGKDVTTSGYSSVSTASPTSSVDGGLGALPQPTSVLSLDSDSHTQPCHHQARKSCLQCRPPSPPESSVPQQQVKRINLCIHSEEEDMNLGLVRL
The description is as above.

For assay [4], the target named is T4, HA-tagged full-length (FL) ZXDA, transfected in HEK293T cells (human) (UniProt P98168).
T4 sequence: T1 sequence
The assay is described as follows: co-IP; HA-tagged ZXDA immunoprecipitated with anti-HA beads from whole-cell lysates of transfected HEK293T cells treated with MLN4924 for 6 h; immunoblot.

Turning to “casein kinase 2 (CK2), endogenous in HEK293T cells (from UniProt P68400 1-391; P67870 1-215) (complex)”, the results for the binding entry in assay [1] and in assay [2] were “binds” and “no binding”, respectively.
Regarding “SKP1, endogenous in HEK293T cells (from UniProt P63208 1-163)”, in assay [1], the binding result is “binds”.

B1: RRM2, endogenous in HEK293T cells (protein, UniProt P31350 1-389)
chain: MLSLRVPLAPITDPQQLQLSPLKGLSLVDKENTPPALSGTRVLASKTARRIFQEPTEPKTKAAAPGVEDEPLLRENPRRFVIFPIEYHDIWQMYKKAEASFWTAEEVDLSKDIQHWESLKPEERYFISHVLAFFAASDGIVNENLVERFSQEVQITEARCFYGFQIAMENIHSEMYSLLIDTYIKDPKEREFLFNAIETMPCVKKKADWALRWIGDKEATYGERVVAFAAVEGIFFSGSFASIFWLKKRGLMPGLTFSNELISRDEGLHCDFACLMFKHLVHKPSEERVREIIINAVRIEQEFLTEALPVKLIGMNCTLMKQYIEFVADRLMLELGFSKVFRVENPFDFMENISLEGKTNFFEKRVGEYQRMGVMSSPTENSFTLDADF
Regarding B1, in assay [3], the binding entry is “binds”.

B2: FBXO38, endogenous in HEK293T cells (protein, UniProt Q6PIJ6 1-1188)
chain: MGPRKKSVKTCIMNNEIPEEMTADETKDYMNQLSHEVLCHIFRYLPLQDIMCMECLSRKLKEAVTLYLRVVRVVDLCAGRWWEYMPSGFTDASFLTLLKKMPDVEQLYGLHPRYLERRRVRGHEAFSIPGVLEALQACPNLVGVETSHLELVESIWTYMPHVHILGKFRNRNGAFPIPPENKLKIPIGAKIQTLHLVGVNVPEIPCIPMLRHLYMKWVRLTKPQPFKDFLCISLRTFVMRNCAGPTNSLKYVPLVTGLASARNLEHLEMVRVPFLGGLIQHVVEDSWRSGGFRNLHTIVLGACKNALEVDLGYLIITAARRLHEVRIQPSLTKDGVFSALKMAELEFPQFETLHLGYVDEFLLQSRMANADLVKYGLADVVENPGIITDIGMKAVNEVFSCIKYLAIYNCPHLHNPYNWISDHSRWTRLVDINLVRCHALKLDSFGQFIELLPSLEFISLDQMFREPPKGCARVGLSAGTGIGVSSALVSNQNSNNDDNNAQNNNANIHDNNHHHPDDSDEENDFRQDLQPGEQQFAADALNEMEDIVQEDGEVVAESGNNTPAHSQAIIPVDVDEEQAGPSGLQRVVKPTSITVHDSESDDEEDSLELQEVWIPKNGTRRYSEREEKTGESVQSRELSVSGKGKTPLRKRYNSHQMGQSKQFPLEESSCEKGCQVTSEQIKADMKAARDIPEKKKNKDVYPSCSSTTASTVGNSSSHNTASQSPDFVRTVNSGGSSEPSPTEVDVSRQCACSPGGSEDSEAMEEGDAESSVCPRCCCHRPQESQRRTSRCSDEERPSTSRACVVNGPDGTRSAFSFRTLPQGGSSGPAHDERTNGSGSGATGEDRRGSSQPESCDVQSNEDYPRRPLTRARSRLSHVLLVSESEVAKTKPRHAMKRKRTADKSTSTSDPVIEDDHVQVLVLKSKNLVGVTMTNCGITDLVLKDCPKMMFIHATRCRVLKHLKVENAPIVNRFDYAQCKKLNMDQVLDQILRMPPERNRIIYLRPMQQVDTLTLEQKLFSGPYPYHICIIHEFSNPPNVRNKVRIRSWMDTIANINQELIKYEFFPEATRSEEDLKKYPKYPWGREIYTLEGVVDGAPYSMISDFPWLRSLRAAEPNSFARYDFEDDEESTIYAPRRKGQLSADICMETIGEEISEMRQMKKGVFQRVVAIFIHYCDVNGEPVEDDYI
With B2, the binding entry in assay [1] and in assay [4] was “binds” in each case.
